Measured values as given in patent US11618753B2 (priority 2018, dated 2023).

system: MLKL phosphorylation, HT29-L23 human colorectal adenocarcinoma cells; assay: cells; conditions: read-out: pMLKL HCS Cell Assay (IC50, uM)

SMILES | IC50
COc1ncc(-c2cc(C(F)(F)F)c3c(N)ncnn23)cc1C(=O)N[C@@H]1CN(S(=O)(=O)c2ccc(C)c(C)c2)C[C@@H]1F [Example 1469, 5-[4-amino-5-(trifluoromethyl)pyrrolo[2,1-f][1,2,4]triazin-7-yl]-N-[(3R,4S)-1-(3,4-dimethylbenzenesulfonyl)-4-fluoropyrrolidin-3-yl]-2-methoxypyridine-3-carboxamide] | 0.212 µM
COc1ccc(OC)c(S(=O)(=O)N2C[C@H](F)[C@H](NC(=O)c3cc(-c4cc(C(F)(F)F)c5c(N)ncnn45)cnc3OC)C2)c1 [Example 1470, 5-[4-amino-5-(trifluoromethyl)pyrrolo[2,1-f][1,2,4]triazin-7-yl]-N-[(3R,4S)-1-(2,5-dimethoxybenzenesulfonyl)-4-fluoropyrrolidin-3-yl]-2-methoxypyridine-3-carboxamide] | 0.287 µM
COc1ncc(-c2cc(C(F)(F)F)c3c(N)ncnn23)cc1C(=O)N[C@@H]1CN(S(=O)(=O)c2cccc3ccccc23)C[C@@H]1F [Example 1471, 5-[4-amino-5-(trifluoromethyl)pyrrolo[2,1-f][1,2,4]triazin-7-yl]-N-[(3R,4S)-4-fluoro-1-(naphthalene-1-sulfonyl)pyrrolidin-3-yl]-2-methoxypyridine-3-carboxamide] | 0.094 µM
COc1ncc(-c2cc(C(F)(F)F)c3c(N)ncnn23)cc1C(=O)N[C@@H]1CN(S(=O)(=O)Cc2ccccc2)C[C@@H]1F [Example 1472, 5-[4-amino-5-(trifluoromethyl)pyrrolo[2,1-f][1,2,4]triazin-7-yl]-N-[(3R,4S)-4-fluoro-1-phenylmethanesulfonylpyrrolidin-3-yl]-2-methoxypyridine-3-carboxamide] | 0.0032 µM
COc1ncc(-c2cc(C(F)(F)F)c3c(N)ncnn23)cc1C(=O)N[C@@H]1CN(S(=O)(=O)Cc2cccc(C)c2)C[C@@H]1F [Example 1473, 5-[4-amino-5-(trifluoromethyl)pyrrolo[2,1-f][1,2,4]triazin-7-yl]-N-[(3R,4S)-4-fluoro-1-[(3-methylphenyl)methanesulfonyl]pyrrolidin-3-yl]-2-methoxypyridine-3-carboxamide] | 0.012 µM
COc1ccc(C)cc1S(=O)(=O)N1C[C@H](F)[C@H](NC(=O)c2cc(-c3cc(C(F)(F)F)c4c(N)ncnn34)cnc2OC)C1 [Example 1475, 5-[4-amino-5-(trifluoromethyl)pyrrolo[2,1-f][1,2,4]triazin-7-yl]-N-[(3R,4S)-4-fluoro-1-(2-methoxy-5-methylbenzenesulfonyl)pyrrolidin-3-yl]-2-methoxypyridine-3-carboxamide] | 0.191 µM
COc1ncc(-c2cc(C(F)(F)F)c3c(N)ncnn23)cc1C(=O)N[C@@H]1CN(S(=O)(=O)c2ccccc2C)C[C@@H]1F [Example 1476, 5-[4-amino-5-(trifluoromethyl)pyrrolo[2,1-f][1,2,4]triazin-7-yl]-N-[(3R,4S)-4-fluoro-1-(2-methylbenzenesulfonyl)pyrrolidin-3-yl]-2-methoxypyridine-3-carboxamide] | 0.077 µM
COc1ncc(-c2cc(C(F)(F)F)c3c(N)ncnn23)cc1C(=O)N[C@@H]1CN(S(=O)(=O)c2cccc(C)c2)C[C@@H]1F [Example 1477, 5-[4-amino-5-(trifluoromethyl)pyrrolo[2,1-f][1,2,4]triazin-7-yl]-N-[(3R,4S)-4-fluoro-1-(3-methylbenzenesulfonyl)pyrrolidin-3-yl]-2-methoxypyridine-3-carboxamide] | 0.022 µM
COc1ncc(-c2cc(C(F)(F)F)c3c(N)ncnn23)cc1C(=O)N[C@@H]1CN(S(=O)(=O)c2ccc(C)cc2)C[C@@H]1F [Example 1478, 5-[4-amino-5-(trifluoromethyl)pyrrolo[2,1-f][1,2,4]triazin-7-yl]-N-[(3R,4S)-4-fluoro-1-(4-methylbenzenesulfonyl)pyrrolidin-3-yl]-2-methoxypyridine-3-carboxamide] | 0.221 µM
COc1ncc(-c2cc(C(F)(F)F)c3c(N)ncnn23)cc1C(=O)N[C@@H]1CN(S(=O)(=O)C2CCOC2)C[C@@H]1F (stereo partly drawn) [Example 1479, 5-[4-amino-5-(trifluoromethyl)pyrrolo[2,1-f][1,2,4]triazin-7-yl]-N-[(3R,4S)-4-fluoro-1-(oxolane-3-sulfonyl)pyrrolidin-3-yl]-2-methoxypyridine-3-carboxamide] | 0.031 µM
COc1ncc(-c2cc(C(F)(F)F)c3c(N)ncnn23)cc1C(=O)N[C@@H]1CN(S(=O)(=O)C2CC3CCC2C3)C[C@@H]1F (stereo partly drawn) [Example 1480, 5-[4-amino-5-(trifluoromethyl)pyrrolo[2,1-f][1,2,4]triazin-7-yl]-N-[(3R,4S)-1-{bicyclo[2.2.1]heptane-2-sulfonyl}-4-fluoropyrrolidin-3-yl]-2-methoxypyridine-3-carboxamide] | 0.012 µM
COc1ncc(-c2cc(C(F)(F)F)c3c(N)ncnn23)cc1C(=O)N[C@@H]1CN(S(=O)(=O)C2CCS(=O)(=O)C2)C[C@@H]1F (stereo partly drawn) [Example 1481, 5-[4-amino-5-(trifluoromethyl)pyrrolo[2,1-f][1,2,4]triazin-7-yl]-N-[(3R,4S)-1-[(1,1-dioxidotetrahydrothiophen-3-yl)sulfonyl]-4-fluoropyrrolidin-3-yl]-2-methoxypyridine-3-carboxamide] | 0.369 µM
CCCCS(=O)(=O)N1C[C@H](F)[C@H](NC(=O)c2cc(-c3cc(C(F)(F)F)c4c(N)ncnn34)cnc2OC)C1 [Example 1482, 5-[4-amino-5-(trifluoromethyl)pyrrolo[2,1-f][1,2,4]triazin-7-yl]-N-[(3R,4S)-1-(butane-1-sulfonyl)-4-fluoropyrrolidin-3-yl]-2-methoxypyridine-3-carboxamide] | 0.017 µM
COc1ncc(-c2cc(C(F)(F)F)c3c(N)ncnn23)cc1C(=O)N[C@@H]1CN(S(=O)(=O)C2CCCCC2O)C[C@@H]1F (stereo partly drawn) [Example 1483, 5-[4-amino-5-(trifluoromethyl)pyrrolo[2,1-f][1,2,4]triazin-7-yl]-N-[(3R,4S)-4-fluoro-1-[(2-hydroxycyclohexyl)sulfonyl]pyrrolidin-3-yl]-2-methoxypyridine-3-carboxamide] | 0.0052 µM
COc1ncc(-c2cc(C(F)(F)F)c3c(N)ncnn23)cc1C(=O)N[C@@H]1CN(S(=O)(=O)CCC(F)(F)F)C[C@@H]1F [Example 1484, 5-[4-amino-5-(trifluoromethyl)pyrrolo[2,1-f][1,2,4]triazin-7-yl]-N-[(3R,4S)-4-fluoro-1-(3,3,3-trifluoropropanesulfonyl)pyrrolidin-3-yl]-2-methoxypyridine-3-carboxamide] | 0.0019 µM
COc1ncc(-c2cc(C(F)(F)F)c3c(N)ncnn23)cc1C(=O)N[C@@H]1CN(S(=O)(=O)C2CCOCC2)C[C@@H]1F [Example 1485, 5-[4-amino-5-(trifluoromethyl)pyrrolo[2,1-f][1,2,4]triazin-7-yl]-N-[(3R,4S)-4-fluoro-1-(oxane-4-sulfonyl)pyrrolidin-3-yl]-2-methoxypyridine-3-carboxamide] | 0.0066 µM
COc1ncc(-c2cc(C(F)(F)F)c3c(N)ncnn23)cc1C(=O)N[C@@H]1CN(S(=O)(=O)C2=CCCCC2)C[C@@H]1F [Example 1486, 5-[4-amino-5-(trifluoromethyl)pyrrolo[2,1-f][1,2,4]triazin-7-yl]-N-[(3R,4S)-1-(cyclohex-1-ene-1-sulfonyl)-4-fluoropyrrolidin-3-yl]-2-methoxypyridine-3-carboxamide] | 0.0042 µM
COc1ncc(-c2cc(C(F)(F)F)c3c(N)ncnn23)cc1C(=O)N[C@@H]1CN(S(=O)(=O)Cc2ccccc2[N+](=O)[O-])C[C@@H]1F [Example 1487, 5-[4-amino-5-(trifluoromethyl)pyrrolo[2,1-f][1,2,4]triazin-7-yl]-N-[(3R,4S)-4-fluoro-1-[(2-nitrophenyl)methanesulfonyl]pyrrolidin-3-yl]-2-methoxypyridine-3-carboxamide] | 0.031 µM
COc1ncc(-c2cc(C(F)(F)F)c3c(N)ncnn23)cc1C(=O)N[C@@H]1CN(S(=O)(=O)Cc2ccc(F)cc2)C[C@@H]1F [Example 1488, 5-[4-amino-5-(trifluoromethyl)pyrrolo[2,1-f][1,2,4]triazin-7-yl]-N-[(3R,4S)-4-fluoro-1-[(4-fluorophenyl)methanesulfonyl]pyrrolidin-3-yl]-2-methoxypyridine-3-carboxamide] | 0.015 µM
COc1ncc(-c2cc(C(F)(F)F)c3c(N)ncnn23)cc1C(=O)N[C@@H]1CN(S(=O)(=O)Cc2cc(F)ccc2F)C[C@@H]1F [Example 1489, 5-[4-amino-5-(trifluoromethyl)pyrrolo[2,1-f][1,2,4]triazin-7-yl]-N-[(3R,4S)-1-[(2,5-difluorophenyl)methanesulfonyl]-4-fluoropyrrolidin-3-yl]-2-methoxypyridine-3-carboxamide] | 0.022 µM
COc1ncc(-c2cc(C(F)(F)F)c3c(N)ncnn23)cc1C(=O)N[C@@H]1CN(S(=O)(=O)Cc2cccc(Cl)c2)C[C@@H]1F [Example 1491, 5-[4-amino-5-(trifluoromethyl)pyrrolo[2,1-f][1,2,4]triazin-7-yl]-N-[(3R,4S)-1-[(3-chlorophenyl)methanesulfonyl]-4-fluoropyrrolidin-3-yl]-2-methoxypyridine-3-carboxamide] | 0.064 µM
COc1ncc(-c2cc(C(F)(F)F)c3c(N)ncnn23)cc1C(=O)N[C@@H]1CN(S(=O)(=O)Cc2c(Cl)cccc2Cl)C[C@@H]1F [Example 1492, 5-[4-amino-5-(trifluoromethyl)pyrrolo[2,1-f][1,2,4]triazin-7-yl]-N-[(3R,4S)-1-[(2,6-dichlorophenyl)methanesulfonyl]-4-fluoropyrrolidin-3-yl]-2-methoxypyridine-3-carboxamide] | 0.0076 µM
COc1ncc(-c2cc(C(F)(F)F)c3c(N)ncnn23)cc1C(=O)N[C@@H]1CN(S(=O)(=O)Cc2ccccc2Cl)C[C@@H]1F [Example 1493, 5-[4-amino-5-(trifluoromethyl)pyrrolo[2,1-f][1,2,4]triazin-7-yl]-N-[(3R,4S)-1-[(2-chlorophenyl)methanesulfonyl]-4-fluoropyrrolidin-3-yl]-2-methoxypyridine-3-carboxamide] | 0.011 µM
COc1ncc(-c2cc(C(F)(F)F)c3c(N)ncnn23)cc1C(=O)N[C@@H]1CN(S(=O)(=O)Cc2ccccn2)C[C@@H]1F [Example 1494, 5-[4-amino-5-(trifluoromethyl)pyrrolo[2,1-f][1,2,4]triazin-7-yl]-N-[(3R,4S)-4-fluoro-1-[(pyridin-2-yl)methanesulfonyl]pyrrolidin-3-yl]-2-methoxypyridine-3-carboxamide] | 0.143 µM
